About 2,200 (0.71%) of roughly 310,000 compounds showed an effect of 50% or more. The effect is printed as a negative number. The list shows a part of the results.
biological target: human ether-à-go-go-related gene (hERG) potassium channel (human, UniProt Q12809); assay: primary screen, population patch clamp on CHO cells stably expressing hERG
Sequence (Q12809 whole entry, looked up): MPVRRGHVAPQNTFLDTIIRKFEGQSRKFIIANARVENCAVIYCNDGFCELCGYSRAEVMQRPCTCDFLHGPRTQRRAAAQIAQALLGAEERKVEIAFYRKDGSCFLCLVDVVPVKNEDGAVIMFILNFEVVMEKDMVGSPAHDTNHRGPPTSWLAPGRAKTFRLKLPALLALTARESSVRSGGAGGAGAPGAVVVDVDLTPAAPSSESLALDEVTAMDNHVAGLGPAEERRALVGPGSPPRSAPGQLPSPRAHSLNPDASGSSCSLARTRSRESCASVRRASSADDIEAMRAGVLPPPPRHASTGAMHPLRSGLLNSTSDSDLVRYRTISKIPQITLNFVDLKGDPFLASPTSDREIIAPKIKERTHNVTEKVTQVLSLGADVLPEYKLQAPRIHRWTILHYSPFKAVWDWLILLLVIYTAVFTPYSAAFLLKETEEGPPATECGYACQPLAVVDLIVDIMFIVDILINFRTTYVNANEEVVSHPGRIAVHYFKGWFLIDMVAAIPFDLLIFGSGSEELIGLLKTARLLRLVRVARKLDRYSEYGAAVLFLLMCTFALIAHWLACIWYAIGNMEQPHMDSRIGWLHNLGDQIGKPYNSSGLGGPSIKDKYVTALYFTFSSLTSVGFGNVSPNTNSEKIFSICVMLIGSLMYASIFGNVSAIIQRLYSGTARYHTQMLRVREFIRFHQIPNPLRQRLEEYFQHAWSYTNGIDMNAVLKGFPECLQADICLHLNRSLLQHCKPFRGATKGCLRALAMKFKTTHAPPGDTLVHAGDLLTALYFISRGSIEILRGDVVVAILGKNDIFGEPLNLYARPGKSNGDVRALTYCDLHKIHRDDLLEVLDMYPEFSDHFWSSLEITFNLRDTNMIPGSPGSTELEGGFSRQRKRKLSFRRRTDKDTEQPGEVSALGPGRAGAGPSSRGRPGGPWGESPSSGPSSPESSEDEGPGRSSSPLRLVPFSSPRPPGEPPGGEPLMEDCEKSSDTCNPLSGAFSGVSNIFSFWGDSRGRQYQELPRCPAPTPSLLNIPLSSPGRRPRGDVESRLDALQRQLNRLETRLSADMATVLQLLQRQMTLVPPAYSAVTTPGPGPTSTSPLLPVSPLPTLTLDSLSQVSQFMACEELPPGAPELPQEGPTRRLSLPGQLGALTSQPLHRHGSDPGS

SMILES | hERG current change (%, negative = inhibition) at 1uM [%]
O=C(Cn1nnc(-c2ccc(CN3CCOCC3)cc2)n1)N(c1ccccc1)c1ccccc1 | 6.69
COc1ccc(N2C(=O)NC(NS(=O)(=O)c3ccc(Cl)cc3)(C(F)(F)F)C2=O)cc1 (centres unmarked) | -3.67
O=C(Nc1nc(-c2ccc(-c3ccccc3)cc2)cs1)C1CCCO1 (centres unmarked) | 1.63
CC(=O)c1c(C)nc(-c2ccccc2)n1O | 4.71
O=C1N=C(C=c2ccc(=Cc3[nH]c(=O)[nH]c3O)cc2)C(=O)N1 | 16.5
O=C(NC(=S)Nc1ccccc1F)C1CCCCC1 | 15.7
CCOc1ccc2nc(NC(=S)N(C)C)sc2c1 | 15.7
O=C(CSc1nc2ccccc2c(=O)n1-c1ccc(F)cc1)Nc1cc(S(=O)(=O)N2CCOCC2)ccc1Cl | 8.93
O=C(c1ccc2nc3ccccc3c(=O)n2c1)N1CCN(Cc2ccc3c(c2)OCO3)CC1 | -12.2
COC(=O)c1ccccc1NC(=O)C1CC(c2ccc(F)cc2)=NO1 (centres unmarked) | -9.68
O=C(CCC1CCCN(c2ncccn2)C1)NCc1ccc(F)c(F)c1 (centres unmarked) | -11.6
O=C(CSc1ccc2nnc(-c3ccccn3)n2n1)Nc1ccc(F)cc1 | -1.22
O=C(CSc1ccccn1)N1CCN(c2ccccc2)CC1 | 6.49
CN(Cc1ccccn1)C(=O)c1ccc2nc(Cc3cccc(Cl)c3)oc2c1 | -1.56
CCCCn1c(SCC(=O)Nc2ccc3c(c2)OCCO3)nnc1C(CC)N(C)C (centres unmarked) | 16.8
CC1CCN(C(=O)CCCNC(=O)Cn2cnc3sc4c(c3c2=O)CCCC4)CC1 | -0.87
CN1C(=O)C(=O)N(CC(=O)Nc2ccccc2OC(F)F)C1=O | 17.4
Cl.c1ccc(C(c2nnnn2Cc2ccco2)N2CCN(C3CCCC3)CC2)cc1 (centres unmarked) | -9.06
CCCCOC1(c2ccccc2)OC(=O)c2ccccc21 (centres unmarked) | -4.19
CC(=O)c1c(-c2ccccc2)c2cc([N+](=O)[O-])ccc2[nH]c1=O | 2.78
CCOc1ccc(S(=O)(=O)Nc2cccc(C(=O)NCC(C)(C)N3CCOCC3)c2)cc1 | -11.7
COc1ccc(C(=O)/C=C(/C)N(C)C)cc1 | -16.6
CCn1c(SCC(=O)Nc2ccc(Br)cc2)nc2sc3c(c2c1=O)CCN(C)C3 | 20

SMILES | hERG current change (%, negative = inhibition) at 1uM [%]
COC(=O)c1c(NC(=O)CSc2nncs2)sc2c1CCCCC2 | 6.92
Cc1csc2ncc(C(=O)NCc3ccccn3)c(=O)n12 | 10.9
Cl.Fc1ccc(C(c2nnnn2C2CCCCC2)N2CCCC2)cc1 (centres unmarked) | 7.37
CCOC(=O)C1(CC2CC2)CCN(C(=O)c2cc(C3CC3)nc3ccccc23)CC1 | 12.2
COc1ccc2cc(/C=C/C(=O)N3CCN(CC(=O)N4CCCCCC4)CC3)ccc2c1 | 2.57
O=C(O)c1ccc(-n2c(/C=C/c3cccc([N+](=O)[O-])c3)nc3ccccc3c2=O)cc1 | 11.7
Cc1ccc(S(=O)(=O)N(CC(=O)N2CCC(C(N)=O)CC2)Cc2ccc(F)cc2)cc1 | -0.354
O=C(CSc1nc2ncccc2[nH]1)NC1CCCC1 | 7.24
Cc1ccccc1CS(=O)(=O)c1cn(CC(=O)N2CCC(C)CC2)c2ccccc12 | 2.72
O=[N+]([O-])c1ccc(/C=N/Nc2nc(N3CCCCC3)nc(N3CCCCC3)n2)cc1 | 10.4
COc1ccc(NC(=O)CNS(=O)(=O)c2ccc(Cl)cc2)cc1 | 14.2
COc1ccc(CCNC(=O)CCc2nc3ccccc3[nH]2)cc1OC | 3.1
CCSc1nc(O)c(CC)c(=O)n1C(C)CC (centres unmarked) | -9.36
CSCCC(NS(=O)(=O)c1cccc(C(F)(F)F)c1)C(=O)Nc1ccccc1N1CCCC1 (centres unmarked) | 5.71
CN(C(=O)CSc1nnc(-c2ccccc2)o1)c1c(N)n(Cc2ccccc2)c(=O)[nH]c1=O | 13
Cc1cc(C(=O)C(=O)N(C)C)c(C)n1-c1ccc([N+](=O)[O-])cc1 | -8.01
COCc1ccc(C(=O)N2CCCC(N3CCN(c4ccccc4C)CC3)C2)s1 (centres unmarked) | 0.695
COc1cc(/C(C)=N/NC(=O)CSc2nncn2C)ccc1OCc1ccccc1Cl | -0.742
Cc1ccc(NC(=O)CN(C)C(=O)Cn2nnc(-c3ccccc3)n2)cc1 | 0.272
COc1ccc(N/C=C(\[N+](=O)[O-])S(=O)(=O)c2ccccc2)cc1 | 14.7
Cl.O=C(NC1CCN(Cc2ccccc2)CC1)c1cc(-c2ccccn2)nc2ccccc12 | -30.9
Cc1oc(-c2ccc(Cl)cc2)nc1CN1CCCC(C(=O)NCCCN2CCCC2=O)C1 (centres unmarked) | -8.71
COc1ccc(-c2nnc(SCC(=O)NCCc3ccccc3)o2)cc1 | 7.65

SMILES | hERG current change (%, negative = inhibition) at 1uM [%]
CCCNC(=S)Nc1ccc(Oc2ccccc2)cc1 | 3.29
Cc1cnnc2c1-c1no[n+]([O-])c1CC2 | 3.62
COc1ccc(COc2ccc3ccc(=O)oc3c2)cc1 | 11.2
CCOc1ccc(C)cc1S(=O)(=O)n1cnc2ccccc21 | 7.91
O=C(/C=C/N1CCN(Cc2ccccc2)CC1)C(F)(F)F | 11.1
Cc1cc(C)n(-c2ccc(NC(=O)C3CCCCN3C(=O)c3ccoc3C)cc2)n1 (centres unmarked) | 12.4
O=C(Cc1cn2ccsc2n1)NCc1ccccc1 | 1.61
CCNC(=O)COC(=O)c1cc(S(=O)(=O)N2CCCc3ccccc32)ccc1Cl | 11.2
CC(=O)/C(C=Nc1noc(C)c1Br)=C(\C)O | 12.5
Cc1ccc(C(C)NC(=O)c2c(C)noc2C)cc1C (centres unmarked) | 7.57
Cn1cccc1Cc1nnc(SCC(=O)Nc2ccc(Cl)cc2)n1-c1ccc(F)cc1 | -10.5
COc1cc(Br)cc2cc(C(=O)NCC3CCCO3)c(=O)oc12 (centres unmarked) | 0.878
CCN(CC)c1ccc(/C=N/Nc2nc(C)cc(C)n2)c(O)c1 | 4.66
COc1cccc(C(=O)Nc2cccnc2)c1 | 11.2
O=C(COc1ccc2ccccc2c1)N1CCN(Cc2ccncc2)CC1.O=C(O)C(=O)O | -14.8
CC(C)N1CCN(Cc2cccc(-c3ccco3)c2)CC1CCO (centres unmarked) | -8.05
OC1CCCCC1 | 14.6
CSc1ncc(Cl)c(C(=O)Nc2ccccc2[N+](=O)[O-])n1 | 16.5
Cc1cc(C(=O)OCC(=O)Nc2ccc(F)cc2)c(C)n1C1CC1 | 11.5
Cc1ccc2c(CC(=O)N3CCN(c4ccccc4)CC3)coc2c1 | 9.82
COc1ccccc1OCC(=O)NCCSCc1cccc(Cl)c1 | 10.4
Cc1ccc(S(=O)(=O)c2nc(-c3ccccc3F)oc2N2CC(C)OC(C)C2)cc1 (centres unmarked) | 9.16
COc1ccccc1CNC(=O)C1CCCN(S(=O)(=O)c2cccc3cccnc23)C1 (centres unmarked) | 0.692

SMILES | hERG current change (%, negative = inhibition) at 1uM [%]
O=C(CSc1nc2c([nH]c3ccccc32)c(=O)n1-c1ccccc1F)NCC1CCCO1 (centres unmarked) | 5.63
Cc1nn(-c2ccccc2)c(C)c1/C=N/NC(=O)c1cc(-c2cccc3ccccc23)n[nH]1 | 8.11
Cc1nn(C2CCS(=O)(=O)C2)c(Cl)c1/C=C/C(=O)OCC(N)=O (centres unmarked) | 7
Cc1ccc(C(=O)N/C(=C\c2ccc(Br)cc2)c2nc(=S)[nH][nH]2)cc1 | 2.96
O=C1/C(=C/c2cccs2)SC(=S)N1CCCC(=O)N(CCO)c1ccccc1 | 16
O=C(/C=C/c1ccccc1)NCCSCc1ccc(Cl)cc1 | 6.58
CC1=C(C(=O)N2CCCCC2)C2(CCC(C)CC2)OC1=O (centres unmarked) | 0.853
COc1ccc(CNC(=O)c2ccc(CS(=O)(=O)Cc3ccccc3F)o2)cc1 | 1.92
CCOc1cc(-c2noc(CCC(=O)NC3CCCCC3)n2)ccc1OC | 0.932
CC(=O)C1=C(C)N(CC2CC2)C(=O)N[C@H]1c1ccc(Br)cc1 | 7.78
Cc1cnc(NC(=O)CCc2ccccc2)s1 | 10.7
CCCCCCCC1(C)NC(=O)NC1=O (centres unmarked) | 11.1
O=C(NCc1cccc(F)c1)C1CCC(=O)N(C2CC2)C1 (centres unmarked) | 13.7
O=[N+]([O-])c1ccccc1N/N=C\c1ccccc1F | 14.6
COCCn1c(Cc2ccccc2)nnc1SCC(=O)N1CCCCC1C (centres unmarked) | 10.4
FC(F)(F)c1ccccc1CNCc1ccc2c(c1)OCO2 | 14.8
COc1ccc(C(=O)NCC(=O)NCC(=O)OCc2ccc(Cl)cc2)cc1 | 15.8
O=C(Nc1cccc(Cl)c1Cl)C1CCCC1 | -3.77
Cc1csc2nc(O)c(C(=O)NCCN3CCOCC3)c(=O)n12 | 1.84
CCOc1ccc(-c2noc(-c3ccncc3)n2)cc1OCC | 15.4
